In all, about 52,000 compounds went through this assay and about 1,700 (3.3%) were called active. No stated cut-off is given here; in the data, active means survival mostly below about 52% (no sharp cut-off); inactive means mostly above about 56%. Some of the results follow.

The experiment concerns Wild type. Briefly: S. aureus survival, RN4220 and DeltatarO strains – OD600, teichoic acid synthesis inhibitors, primary screen (AID 463173). As to conditions: S. aureus RN4220 wild type/DeltatarO growth, OD600, 18 h, active compounds read low, screened at 18.75 µg/mL (by protocol).
`Cc1cccc(N2C(=O)N(Cc3cccc(C#N)c3)c3ccccc3S2(=O)=O)c1`: the survival was inactive: 79%.
In the case of `Cc1ccc(CSc2nc3ccncc3n2Cc2nc(-c3ccccc3C)oc2C)cc1`, the survival was active: 0%.
With `O=C(CCS(=O)(=O)c1cc(Br)cc2c1N(C(=O)C1CC1)CC2)N1CCN(c2cccc(C(F)(F)F)c2)CC1`, the survival is inactive: 90%.
The value for `O=C(Cn1c(=O)n(Cc2ccc(C(=O)NCc3ccc4c(c3)OCO4)cc2)c(=O)c2ccccc21)Nc1ccccc1F` was inactive: 91%; that for `COc1ccc(-n2ccn(CC(=O)Nc3ccc(C)cc3C)c(=O)c2=O)cc1` was inactive: 85%; that for `CCCc1nnc(NC(=O)C(CC)Sc2nnc3c4ccccc4n(C)c3n2)s1` (centres undefined) was inactive: 70%.
With `COc1ccc(CNC(=O)c2sc3nc4n(c(=O)c3c2C)CCC4)cc1`, the survival is inactive: 86%.
The result for `CC(C)N(Cc1nc(-c2ccc(Cl)cc2)no1)C(=O)c1ccco1` reads inactive: 76%; that for `COc1ccc2c(c1)c1c(c(=O)n(-c3cccc(C)c3)c(=O)n1CC(=O)NCc1ccc(C)cc1)n2C`, inactive: 82%; that for `COC(=O)c1cc(C)nc2c1c(=O)nc(SCc1ccccc1Cl)n2C1CC1`, inactive: 83%.
Regarding `Cc1ccc(OCC(=O)Nc2ccc3nn(-c4ccc(C)cc4)nc3c2)cc1`, the survival was inactive: 71%.
Take `Cc1cccc(CCNC(=O)CCS(=O)(=O)c2cc3c(cc2C)NC(=O)CO3)c1`: the survival was inactive: 90%.
In the case of `CCc1nnc2c(Nc3ccccc3Br)nc3ccccc3n12`, the survival was inactive: 88%.
As for `CCc1cccc(NS(=O)(=O)c2ccc3c(c2)N(CC(=O)OC)C(=O)CS3)c1`, the survival was inactive: 81%.
With `COc1ccccc1N1CCN(C(=O)CNS(=O)(=O)c2ccc(Br)s2)CC1`, the survival is inactive: 135%.
The value for `CCOC(=O)N1CCC2(CC1)OC(=O)C(C)=C2C(=O)NCc1ccccc1OC` was inactive: 71%.
The value for `Cn1cnc(S(=O)(=O)N2CCC(C(=O)Nc3ccc(Cl)c(C(F)(F)F)c3)CC2)c1` was inactive: 88%; that for `Cc1nn(-c2ccccc2)c2sc(C(=O)N(CC(=O)NC3CCCC3)C3CC3)cc12` was inactive: 110%.
Regarding `Cc1cc(Cl)ccc1OCC(=O)N(Cc1ccc(N(C)C)cc1)C1CCS(=O)(=O)C1` (centres undefined), the survival is inactive: 73%.
In the case of `CCCn1cc(S(=O)(=O)c2cccc(Cl)c2)c(=O)c2cc(F)c(N3CCCC3)cc21`, the survival is inactive: 59%.
On to `Cc1cccc(C(C)C)c1NC(=O)c1ccc2c(c1)CCCN2S(C)(=O)=O`, for which the survival was inactive: 100%.
As for `Cc1ccc(NC(=O)CSc2nccn2C2CCCC2)cc1Cl`, the survival is inactive: 125%.
On to `CC1(C)CC(=O)C(C(=O)/C=C/c2ccco2)C(=O)C1`, for which the survival was inactive: 102%.
As to `CCOC(=O)c1cc(-c2ccc(C)cc2)n(CC(=O)Nc2ccc(OC)cc2OC)c1C`, the survival was inactive: 92%.
The result for `Cc1ccc(S(=O)(=O)CCC(=O)N2CCN(c3nc4c(C)c(C)ccc4s3)CC2)cc1` reads inactive: 79%.
`Cc1ccc(S(=O)(=O)N(CC(=O)NCCSc2ccc(Cl)cc2)c2cccc(Cl)c2)cc1`: the survival is inactive: 129%.
As for `CCN1CCN(C(c2ccc(F)cc2)c2sc3nc(-c4ccco4)nn3c2O)CC1` (centres undefined), the survival is inactive: 131%.
For the molecule `CCC(C)NC(=O)c1cnn(-c2cccc(F)c2)c1-n1cccc1` (centres undefined), the survival is inactive: 101%.
As to `CC(=O)N1CCCC1c1nc2ccccc2n1Cc1ccccc1F` (centres undefined), the survival is inactive: 85%.
With `COc1ccc(N2CCN(C(c3ccc(F)cc3)c3sc4nc(-c5ccco5)nn4c3O)CC2)cc1` (centres undefined), the survival is inactive: 78%.
The result for `Cc1ccc(OCC(=O)Nc2nonc2-c2ccc(Br)cc2)cc1` reads inactive: 80%.
On to `CCc1cc(=O)[nH]c(SCc2nc(-c3ccc(C(F)(F)F)cc3)no2)n1`, for which the survival was active: 0%.
For `O=C(Nc1cccc2c1CCCC2)N1CCOc2ccc(Cl)cc21`, the survival is inactive: 83%.
Turning to `CC(C)OCCCNC(=O)CN1C(=O)c2ccccc2Sc2ncccc21`, the survival is inactive: 94%.
With `CCCC(=O)Nc1ccc2nc(SCC(=O)N3CCOCC3)sc2c1`, the survival is inactive: 86%.
In the case of `CN1c2ccccc2N(C)C1c1cccs1`, the survival was inactive: 120%.
As for `COc1ccc(C(=O)CSc2nccc(=O)[nH]2)cc1`, the survival is inactive: 112%.
As to `Fc1ccc(N2CCN(c3ncnc4[nH]ncc34)CC2)cc1`, the survival was inactive: 87%.
For `Cc1oc2ncnc(N3CCOCC3)c2c1C(=O)NCc1ccc(Cl)cc1`, the survival is inactive: 73%.
In the case of `N#C/C(=C\c1ccc(-c2cccc(Cl)c2)o1)C(=O)Nc1cccc(C(F)(F)F)c1`, the survival was inactive: 133%.
With `Cc1cc2ncn(S(=O)(=O)c3ccc(S(=O)(=O)N(C)C)cc3)c2cc1C`, the survival was inactive: 104%.
As for `S=C1NCN(CCCn2ccnc2)CN1`, the survival was inactive: 108%.
Take `CCc1nc2ccccc2n2c(-c3ccccc3)c3c(=O)n(C)c(=O)n(C)c3c12`: the survival was inactive: 61%.
Regarding `COc1ccc(-n2c(=O)c3c4c(sc3n(Cc3ccc(C)cc3C)c2=O)CCC4)c(OC)c1`, the survival was inactive: 78%.
The value for `CCc1c(C)nc2nncn2c1Nc1ccc(Cl)cc1` was inactive: 100%; that for `CCOc1ccccc1NS(=O)(=O)c1ccc2c(c1)CC(C)N2C(=O)C1CC1` (centres undefined) was inactive: 77%; that for `COc1ccc(OC)c(CNC(=O)Cn2ncc3c([nH]c4ccc(C)cc43)c2=O)c1` was inactive: 69%.
The value for `CCC(C(=O)Nc1ccc(C(C)=O)cc1)n1cnc2nc3c(cc2c1=O)CCCC3` (centres undefined) was inactive: 63%; that for `COc1cc(C(CC(=O)NCc2ccccc2)N2Cc3ccccc3C2=O)cc(OC)c1OC` (centres undefined) was inactive: 131%.
In the case of `Cc1cc(C)cc(NC(=O)CCc2nnc3n(C)c(=O)c4sccc4n23)c1`, the survival is inactive: 72%.
The result for `Cc1cc(C)n2nc(CNC(=O)c3ccccc3Cl)nc2n1` reads inactive: 121%.
Take `O=C(NCCc1csc(-c2ccc(F)cc2)n1)c1ccco1`: the survival was inactive: 82%.
With `CC1=C(C(=O)Nc2cc(Cl)ccc2C)C2(CCCCC2)OC1=O`, the survival is inactive: 80%.
With `CCOc1ccc(NC(=O)C2CCN(c3nc4ccccc4[nH]3)CC2)cc1`, the survival is inactive: 124%.
Consider `CCSc1ccc(C(=O)Nc2ccc(-c3nc4ccc(C)cc4s3)cc2)cc1`, for which the survival is inactive: 118%.
Consider `COc1ccc2c(C)c(CCC(=O)NCc3ccc(C)cc3)c(=O)oc2c1`, for which the survival was inactive: 79%.
With `COC(=O)c1c(SC)nc2ccccc2c1OCc1ccccc1Cl`, the survival is inactive: 82%.
The result for `CC(C)(C)OC(=O)N1CCC(c2c(C(=O)NCCc3ccsc3)cnn2-c2ccccc2Cl)CC1` reads inactive: 73%.
As for `CCOc1ccc(N2C(=O)CS(=O)(=O)C23C(=O)N(Cc2cccc(Cl)c2)c2ccccc23)cc1` (centres undefined), the survival was inactive: 68%.
On to `CCOc1ccc(CN2CCc3nc(N4CCN(c5ncccn5)CC4)ncc3C2)cc1OC`, for which the survival is inactive: 78%.
Turning to `Cc1ccc(-c2c(C(=O)N3CCN(c4cccc(C)c4)C(C)C3)oc(=O)c3ccccc23)cc1` (centres undefined), the survival was inactive: 80%.
`CCC(CC)C(=O)OCc1cc(=O)n2nc(C3CCCCC3)sc2n1`: the survival was inactive: 63%.
As for `COC(=O)C1=C(C)N=C2SCCC(=O)N2C1c1ccc(OCc2ccccc2)c(OC)c1` (centres undefined), the survival is inactive: 85%.
Consider `CCOC(=O)c1c(C)[nH]c(C)c1S(=O)(=O)N(C)CC(=O)N1CCN(c2ccc(Cl)cc2)CC1`, for which the survival was inactive: 92%.
`CCOC(=O)C(=O)NCC(c1cccnc1)N1CCN(c2ccccc2)CC1` (centres undefined): the survival is inactive: 85%.
The value for `CCOC(=O)CC(NC(=O)c1cc2cc(Br)cc(OC)c2oc1=O)c1ccc(OC)cc1` (centres undefined) was inactive: 77%; that for `CC(C)(C)OC(=O)N1CCC(c2c(C(=O)Nc3ccc4c(c3)OCCO4)cnn2-c2ccc(F)cc2F)CC1` was inactive: 64%; that for `Cn1cnc2c(=O)oc3ccc(S(=O)(=O)N4CCN(c5cccc(C(F)(F)F)c5)CC4)cc3c21` was inactive: 120%.
Turning to `COc1ccc(N2CC(NC(=O)COc3ccc(F)cc3)CC2=O)cc1OC` (centres undefined), the survival is inactive: 68%.
The result for `COc1ccc(S(=O)(=O)NCCc2nnc3ccc(SCC(=O)Nc4cc(C)cc(C)c4)nn23)cc1` reads inactive: 92%.
The result for `CCC1CN(C(=O)NCc2ccccc2)c2cc(Cl)ccc2O1` (centres undefined) reads inactive: 89%; that for `O=C(Nc1cccc(OCc2cc(=O)n3ccccc3n2)c1)c1ccccc1Br`, inactive: 75%; that for `CCOC(=O)c1ccc(NC(=O)CSc2ccc(-c3ccccn3)nn2)cc1`, inactive: 90%.
The value for `CCN(CC)c1cc(C)c2cc(NC(=O)c3ccccc3Cl)ccc2n1` was inactive: 83%.
In the case of `Cc1ccc(-c2nc3c(c(SCC(=O)N(C)c4ccccc4)n2)Cc2c(CO)cnc(C)c2O3)cc1`, the survival was inactive: 94%.
`Cn1c(=O)n(C)c2cc(N3CCOCC3)c(NC(=O)c3ccc(Cl)cc3)cc21`: the survival is inactive: 84%.
With `Cc1cc(C)c(S(=O)(=O)NCC(=O)N2CCc3ccccc3C2)c(C)c1`, the survival is inactive: 87%.
The value for `CCC(=O)NC1CCN(C(=S)NC)CC1` was inactive: 88%.
Turning to `COc1ccccc1CCNC(=O)C(=O)NCC(c1ccco1)S(=O)(=O)c1ccc(F)cc1` (centres undefined), the survival is inactive: 73%.
In the case of `Cn1c2ccccc2c2c(C(=O)N3CCN(c4cccc(Cl)c4)CC3)cn(C3CCCCC3)c(=O)c21`, the survival is inactive: 80%.
Regarding `COc1ccc(OC)c(CCNC(=O)c2cc3cccc4c3n2CC(C)S4)c1` (centres undefined), the survival was inactive: 59%.
As for `Cn1c(=O)c2c(nc(CN3CCN(c4ccccc4F)CC3)n2Cc2ccccc2F)n(C)c1=O`, the survival is inactive: 89%.
In the case of `O=C1C(=O)N(C2CCN(S(=O)(=O)c3ccccc3)CC2)CCN1Cc1ccccc1`, the survival was inactive: 73%.
`Cc1nc2ccc(C(=O)O)cc2c2c1CC(C)S2` (centres undefined): the survival is inactive: 102%.
With `COc1cccc(N2CCN(C(=O)C3CCCN(S(=O)(=O)c4ccc5c(c4)oc(=O)n5C)C3)CC2)c1` (centres undefined), the survival was inactive: 83%.
The result for `O=C(NCc1ccc2c(c1)CCN2C(=O)c1ccncc1)c1ccccc1Cl` reads inactive: 72%; that for `CCSc1ncc(Cl)c(C(=O)Nc2ccc(S(=O)(=O)Nc3ncccn3)cc2)n1`, inactive: 90%.
`CC(C)(C)CC(=O)Nc1nnc(-c2ccccc2)s1`: the survival was inactive: 103%.
The value for `COc1cccc(CNC(=O)CCCn2ncn3c(cc4occc43)c2=O)c1OC` was inactive: 112%.

These data come from PubChem BioAssay AID463173 (ICCB-Longwood Screening Facility, Harvard Medical School, 2010).
